Laboratory results as given in paper PMC4336329 (PLoS ONE, 2015).
The campaign covered roughly 310,000 compounds. About 14,000 (4.5%) showed an effect of 50% or more. The effect is printed as a negative number. Some of the results follow.

Each compound was assayed against human ether-à-go-go-related gene (hERG) potassium channel (human, UniProt Q12809) (assay: primary screen, population patch clamp on CHO cells stably expressing hERG).
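Also: peak tail current of the secondary pulse compared with the same well before compound.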

Sequence of human ether-à-go-go-related gene (hERG) potassium channel (Q12809 whole entry, looked up): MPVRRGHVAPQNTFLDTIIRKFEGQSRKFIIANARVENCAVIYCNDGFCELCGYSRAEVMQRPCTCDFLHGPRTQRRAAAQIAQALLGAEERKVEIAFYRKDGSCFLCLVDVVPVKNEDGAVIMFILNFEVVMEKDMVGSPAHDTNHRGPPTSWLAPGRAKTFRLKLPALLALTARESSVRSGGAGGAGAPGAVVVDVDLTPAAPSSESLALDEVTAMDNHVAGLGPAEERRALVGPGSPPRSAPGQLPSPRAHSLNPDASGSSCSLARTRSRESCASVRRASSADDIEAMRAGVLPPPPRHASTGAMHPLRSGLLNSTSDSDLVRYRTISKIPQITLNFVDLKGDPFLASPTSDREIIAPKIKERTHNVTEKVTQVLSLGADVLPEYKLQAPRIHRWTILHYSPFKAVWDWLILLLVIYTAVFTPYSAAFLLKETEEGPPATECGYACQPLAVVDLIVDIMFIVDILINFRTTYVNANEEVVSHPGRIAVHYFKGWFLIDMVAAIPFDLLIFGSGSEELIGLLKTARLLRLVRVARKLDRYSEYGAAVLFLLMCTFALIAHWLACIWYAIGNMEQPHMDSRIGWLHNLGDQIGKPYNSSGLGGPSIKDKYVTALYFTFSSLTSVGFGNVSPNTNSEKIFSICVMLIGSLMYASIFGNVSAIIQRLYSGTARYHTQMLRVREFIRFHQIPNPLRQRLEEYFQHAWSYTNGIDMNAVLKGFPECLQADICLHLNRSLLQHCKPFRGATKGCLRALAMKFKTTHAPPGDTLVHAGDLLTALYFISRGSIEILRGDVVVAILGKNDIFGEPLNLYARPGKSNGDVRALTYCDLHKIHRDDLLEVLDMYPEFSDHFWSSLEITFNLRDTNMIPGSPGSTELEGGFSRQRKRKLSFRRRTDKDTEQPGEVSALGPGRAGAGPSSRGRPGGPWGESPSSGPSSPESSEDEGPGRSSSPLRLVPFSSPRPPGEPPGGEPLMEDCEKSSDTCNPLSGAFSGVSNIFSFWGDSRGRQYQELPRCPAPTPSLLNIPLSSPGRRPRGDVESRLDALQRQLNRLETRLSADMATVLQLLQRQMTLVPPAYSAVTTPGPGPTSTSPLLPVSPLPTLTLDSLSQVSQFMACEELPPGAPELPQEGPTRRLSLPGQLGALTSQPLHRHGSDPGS

| SMILES | hERG current change (%, negative = inhibition) at 10uM [%] |
| --- | --- |
| CC(C)N1C[C@@]23C=C[C@@H](O2)C(C(=O)OCc2ccccc2)[C@H]3C1=O (stereo partly shown) | 9.24 |
| C=CCn1c(COc2ccc(F)cc2)nnc1SCC(=O)c1c[nH]c2c(CC)cccc12 | 7.05 |
| Cc1cc(C)c(NC(=O)NC(=O)c2ccc(F)cc2)c(C)n1 | -0.738 |
| FC(F)(F)c1ccc(CSc2nccn2-c2ccccc2)cc1 | 0.885 |
| CC(C(=O)NCc1ccc2c(c1)OCO2)c1ccc([N+](=O)[O-])cc1 (stereo not shown) | -13.6 |
| O=C(CNC(=O)c1ccco1)Nc1ccncc1 | -5.14 |
| Cc1occc1C(=O)Nc1sccc1C(N)=O | 3.55 |
| O=C1OC2(O)C3C4C=CC(C4)C3C(=O)N2c2ccccc21 (stereo not shown) | 16.1 |
| CCC(C)[C@H]1CNCCN1CCc1cccc(F)c1 (stereo partly shown) | 4.5 |
| CCCNC(=O)Cn1cnc2sc(C(=O)N3CCN(CCC)CC3)c(C)c2c1=O | 2.73 |
| Cc1cccc(N(C(=O)CCC(=O)Nc2ccccn2)C(C(=O)NC(C)C)c2ccc(O)cc2)c1 (stereo not shown) | 11.1 |
| CCOC(=O)c1ccc(NC(=O)COc2cc(=O)n(CC)c3ccccc23)cc1 | 11.1 |
| Cc1ccccc1-n1nc(C(=O)O)c(C)c(C#N)c1=O | 9.37 |
| COc1cc(C(=O)Nc2ccccc2C(=O)NCc2cccnc2)cc(OC)c1OC | -0.227 |
| COc1ccc(Cc2nnc3c4cnn(C)c4ncn23)cc1 | -5.22 |
| Cc1cc(C)c2c(CC(=O)N3CCCC3)coc2c1 | 12.9 |
| O=C(O)/C(=C\c1ccc(-c2ccccc2[N+](=O)[O-])o1)c1ccccc1 | 23.6 |
| Cc1ccc2c(C)c(C(=O)N(C)C(C)c3ccncn3)oc2c1C (stereo not shown) | -9.41 |
| Fc1ccc(CNc2cnccn2)cc1 | 12.1 |
| CC1(C)CC2CC(C)(CN2C(=O)COC(=O)c2n[nH]c(=O)c3ccccc23)C1 (stereo not shown) | -19.9 |

| SMILES | hERG current change (%, negative = inhibition) at 10uM [%] |
| --- | --- |
| N#CC1=C(SCc2ccccc2)NC(=O)CC1c1ccccc1 (stereo not shown) | -8.81 |
| C=CCn1c(=O)c2ccccc2n2nnc(C(=O)OCC)c12 | 1.77 |
| Cc1ccc(CNC(=O)Cn2cnc(S(=O)(=O)N3CCC(C)CC3)c2)o1 | -62.1 |
| COc1ccc(OCCNc2cc(Cl)ccc2[N+](=O)[O-])cc1 | 9.2 |
| O=C(CN1C(=O)NC2(CCOc3ccccc32)C1=O)c1ccc(Br)cc1 (stereo not shown) | -19.5 |
| O=C(CCN1C(=O)/C(=C/c2ccccc2F)SC1=S)Nc1ccccn1 | -4.2 |
| O=C(C1COc2ccccc2O1)N1CCN(c2ccc(F)cc2)CC1 (stereo not shown) | -40.7 |
| Cc1cc2cc(CNC(=O)c3ccc(S(=O)(=O)N(C)C)cc3)ccc2n1C | 4.48 |
| CC(C)C(=O)Nc1nc2cc3c(cc2s1)OCO3 | -10.4 |
| COc1cccc(NC(=O)NCCN2CCCCC2)c1 | -13.7 |
| CC(C)CCNc1nc2c(c(=O)[nH]c(=O)n2C)n1CC(O)COC(C)C (stereo not shown) | -7.08 |
| CC(C)CC(=O)OCc1cn(-c2ccccc2)nn1 | -11.1 |
| Cc1cc(C)c[n+](CC(=O)c2c(C)cc(C)c([N+](=O)[O-])c2C)c1.[Br-] | -68.6 |
| COc1cc2[nH]c(=O)n(CCC(=O)N3CCN(c4cc(Cl)ccc4C)CC3)c(=O)c2cc1OC | 0.821 |
| O=C(O)CCCN=C1NC2(CCCC2)Cc2ccccc21 | -39.6 |
| CC1CCC(NC(=O)CCN2C(=O)C3C4C=CC(C4)C3C2=O)CC1 (stereo not shown) | 5.98 |
| CCNC(=S)NS(=O)(=O)c1ccc(F)cc1 | 17.3 |
| Cn1ccnc1SCCNC(=O)CCc1nnc(CCc2ccccc2)o1 | -10.2 |
| O=C(CN1CCN(S(=O)(=O)c2cc(Cl)ccc2Cl)CC1)Nc1ccc2c(c1)OCCO2 | -23.2 |
| COC(=O)c1cnn(-c2nc(-c3ccccc3)cs2)c1N | 12.7 |

| SMILES | hERG current change (%, negative = inhibition) at 10uM [%] |
| --- | --- |
| Cc1nc(N2CCCCC2)c2sc(=S)n(C)c2n1 | 0.582 |
| CCOC(=O)C1CCCN(C(=O)c2ccc(CS(=O)(=O)c3ccc(C)cc3)o2)C1 (stereo not shown) | -20.4 |
| Fc1cccc(F)c1/C=C/c1ccc2ccccc2n1 | -7.93 |
| CCCc1cc2c(cc1NC(=O)c1ccc(Br)cc1)OCO2 | -4.12 |
| Cc1cc(C)c(NC(=O)CSc2nc3c(c(=O)n2C)SC(C)C3)c(C)c1 (stereo not shown) | 6.58 |
| O=C(CN1C(=O)COc2ccccc21)NCCCN1CCc2ccccc2C1 | -32 |
| COc1ccc(C(=O)C2CCCN(C(=O)CCC3=NNC(=O)CC3)C2)c(C)c1 (stereo not shown) | -4.27 |
| COc1ccccc1-n1c(N)cc(=O)nc1SCC(=O)Nc1cc(C)on1 | 7.39 |
| CCc1c(C)nc2ncnn2c1N1CCC(C(=O)Nc2ccccc2)CC1 | -44.4 |
| Fc1ccc(-c2n[nH]c(=S)n2Cc2ccccc2)cc1 | 7.48 |
| COc1ccc(Nc2ncnc3c2oc2ccccc23)cc1 | -6.03 |
| O=C(CCCCCNC(=O)c1ccccc1)N/N=C/c1ccco1 | 1.16 |
| O=C(c1ccc(S(=O)(=O)N2CCCCC2)cc1)N(c1ccccn1)C1CCCCC1 | -5 |
| COc1ccccc1CCNC(C)CCc1ccc(O)cc1 (stereo not shown) | -52.5 |
| CC(=O)Nc1ccc(OCc2cccc([N+](=O)[O-])c2)cc1 | 8.84 |
| CCOC(=O)c1cnc2ccc(C)cc2c1Sc1ccccc1 | -4.19 |
| Cc1cnc(CNC(=O)c2ccc3oc(Cc4ccc(Cl)cc4)nc3c2)cn1 | -15.7 |
| Cc1onc(C(=O)NCc2cccs2)c1[N+](=O)[O-] | 9.7 |
